According to patent publication US20140004122A1, “METHODS FOR TREATING OR PREVENTING CHOLESTEROL RELATED DISORDERS” (AMGEN INC., priority 2011, published 2014):

Experiments:
D374Y PCSK9/LDLR binding = D374Y PCSK9/LDLR binding (Homo sapiens, UniProt Q8NBP7, D374Y); assay: Blocking D374Y PCSK9/LDLR binding (Example 9); settings: 20 ng/ml biotinylated D374Y PCSK9
Protocol: Clear 384 well plates (Costar) were coated with 2 micrograms/ml of goat anti-LDL receptor antibody (R&D Systems) diluted in buffer A (100 mM sodium cacodylate, pH 7.4). Plates were washed thoroughly with buffer A and then blocked for 2 hours with buffer B (1% milk in buffer A). After washing, plates were incubated for 1.5 hours with 0.4 micrograms/ml of LDL receptor (R&D Systems) diluted in buffer C (buffer B supplemented with 10 mM CaCl2). […] The LDL receptor containing plates were washed and the biotinylated D374Y PCSK9/antibody mixture was transferred to them and incubated for 1 hour at room temperature. Binding of the biotinylated D374Y to the LDL receptor was detected by incubation with streptavidin-HRP (Biosource) at 500 ng/ml in buffer C followed by TMB substrate (KPL). The signal was quenched with 1N HCl and the absorbance read at 450 nm.

[1] = target: D374Y human PCSK9 (HepG2 cells) (Homo sapiens, UniProt Q8NBP7, D374Y); assay: Cell LDL uptake assay (Example 10); type: cell-based; settings: 2 μg/ml D374Y human PCSK9, HepG2 cells
Protocol: Human HepG2 cells were seeded in black, clear bottom 96-well plates (Costar) at a concentration of 5×10^5 cells per well in DMEM medium (Mediatech, Inc) supplemented with 10% FBS and incubated at 37° C. (5% CO2) overnight. To form the PCSK9 and antibody complex, 2 μg/ml of D374Y human PCSK9 was incubated with various concentrations of antibody diluted in uptake buffer (DMEM with 1% FBS) or uptake buffer alone (control) for 1 hour at room temperature. After washing the cells with PBS, the D374Y PCSK9/antibody mixture was transferred to the cells, followed by LDL-BODIPY (Invitrogen) diluted in uptake buffer at a final concentration of 6 μg/ml. After incubation for 3 hours at 37° C. (5% CO2), cells were washed thoroughly with PBS and the cell fluorescence signal was detected by Safire™ (TECAN) at 480-520 nm (excitation) and 520-600 nm (emission).

PCSK9 [2] = target: T1, PCSK9 (Homo sapiens, UniProt Q8NBP7); assay: BIAcore affinity analysis; type: binding; settings: for Kd: pH 6 (Table 7.2)
PCSK9 [3] = target: T1, PCSK9; assay: BIAcore affinity analysis; type: binding; settings: pH 7.4 (Table 7.2)
Protocol: Briefly, the surface plasmon resonance experiments were performed using Biacore 2000 optical biosensors (Biacore, GE Healthcare, Piscataway, N.J.). […] The concentration of PCSK9 protein was varied at 2 fold intervals (the analyte) and was injected over the immobilized antibody surface (at a flow rate of 100 μl/min for 1.5 minutes). Fresh HBS-P buffer (pH 7.4, 0.01 M Hepes, 0.15 M NaCl, 0.005% surfactant P-20, Biacore) supplemented with 0.01% BSA was used as binding buffer.
The binding signal obtained was proportional to the free PCSK9 in solution.
Antibody binding kinetic parameters including ka (association rate constant), kd (dissociation rate constant), and KD (dissociation equilibrium constant) were determined using the BIA evaluation 3.1 computer program (BIAcore, Inc. Piscataway, N.J.).

PCSK9 [4] = target: T1, PCSK9; assay: BIAcore solution equilibrium binding assay; settings: 0.3, 1 and 3 nM fixed PCSK9; read-out: KD hPCSK9
From the text: Flow cell 3 was used as a background control. […] Although cPCSK9 has lower protein concentration observed from KinExA assay and SDS-gel, its concentration was not adjusted here since the concentration of cPCSK9 was not used for calculation of KD. […] FIG. 5B depicts the results from the solution equilibrium assay at three different hPCSK9 concentrations for hPCSK9. FIG. 5C depicts a similar set of results for mPCSK9. FIG. 5D depicts the results from the above biacore capture assay.

IC50 (D374Y PCSK9/LDLR binding)	IC50 [1]	Koff (PCSK9 [2]; pH 6)	Kon (PCSK9 [2]; pH 6)	Kd (PCSK9 [2])	Koff (PCSK9 [2]; pH 7.4)	Kon (PCSK9 [2]; pH 7.4)	Kd (PCSK9 [3])	Kd (PCSK9 [4])	Molecule
0.169 nM	18 nM								21B12 IgG4: human 21B12 IgG4 antibody produced from hybridomas (antibody) heavy: QVQLVQSGAEVKKPGASVKVSCKASGYTLTSYGISWVRQAPGQGLEWMGWVSFYNGNTNYAQKLQGRGTMTTDPSTSTAYMELRSLRSDDTAVYYCARGYGMDVWGQGTTVTVSSASTKGPSVFPLAPCSRSTSESTAALGCLVKDYFPEPVTVSWNSGALTSGVHTFPAVLQSSGLYSLSSVVTVPSSSLGTKTYTCNVDHKPSNTKVDKRV[human IgG4 Fc not spelt out] light: QSALTQPASVSGSPGQSITISCTGTSSDVGGYNSVSWYQQHPGKAPKLMIYEVSNRPSGVSNRFSGSKSGNTASLTISGLQAEDEADYYCNSYTSTSMVFGGGTKLTVLQPKAAPSVTLFPPSSEELQANKATLVCLISDFYPGAVTVAWKADSSPVKAGVETTTPSKQSNNKYAASSYLSLTPEQWKSHRSYSCQVTHEGSTVEKTVAPTECS
		1.676e-05 s⁻¹	2.291e+06 M⁻¹ s⁻¹	0.0073 nM	6.634e-06 s⁻¹	34918 M⁻¹ s⁻¹	0.19 nM	0.015 nM	21B12.1: clone 1 of hybridoma line 21B12 (line number and clone number) (antibody) heavy: QVQLVQSGAEVKKPGASVKVSCKASGYTLTSYGISWVRQAPGQGLEWMGWVSFYNGNTNYAQKLQGRGTMTTDPSTSTAYMELRSLRSDDTAVYYCARGYGMDVWGQGTTVTVSSASTKGPSVFPLAPCSRSTSESTAALGCLVKDYFPEPVTVSWNSGALTSGVHTFPAVLQSSGLYSLSSVVTVPSSSLGTKTYTCNVDHKPSNTKVDKRV[human IgG4 Fc not spelt out] light: QSALTQPASVSGSPGQSITISCTGTSSDVGGYNSVSWYQQHPGKAPKLMIYEVSNRPSGVSNRFSGSKSGNTASLTISGLQAEDEADYYCNSYTSTSMVFGGGTKLTVLQPKAAPSVTLFPPSSEELQANKATLVCLISDFYPGAVTVAWKADSSPVKAGVETTTPSKQSNNKYAASSYLSLTPEQWKSHRSYSCQVTHEGSTVEKTVAPTECS
		7.007e-05 s⁻¹	2.392e+06 M⁻¹ s⁻¹	0.029 nM	4.983e-05 s⁻¹	106400 M⁻¹ s⁻¹	0.47 nM		16F12.1: clone 1 of hybridoma line 16F12 (line number and clone number) (antibody) heavy: QVHLVESGGGVVQPGRSLRLSCAASGFTFNSFGMHWVRQAPGKGLEWVALIWSDGSDEYYADSVKGRFTISRDNSKNTLYLQMNSLRAEDTAVYYCARAIAALYYYYGMDVWGQGTTVTVSSASTKGPSVFPLAPCSRSTSESTAALGCLVKDYFPEPVTVSWNSGALTSGVHTFPAVLQSSGLYSLSSVVTVPSSSLGTKTYTCNVDHKPSNTKVDKRV[human IgG4 Fc not spelt out] light: QSVLTQPPSVSAAPGQKVTISCSGSSSNIGNNFVSWYQQLPGTAPKLLIYDYNKRPSGIPDRFSGSKSGTSATLGITGLQTGDEADYYCGTWDSSLSAYVFGTGTRVTVLQPKAAPSVTLFPPSSEELQANKATLVCLISDFYPGAVTVAWKADSSPVKAGVETTTPSKQSNNKYAASSYLSLTPEQWKSHRSYSCQVTHEGSTVEKTVAPTECS
